Measurements reported in PubChem BioAssay AID894 (National Center for Advancing Translational Sciences (NCATS), 2007).
Values joined by “and” are separate entries in the source; they are usually repeats but may differ in a detail not shown here. Identical values can stand only once. In all, about 150,000 compounds went through this assay and about 6,500 (4.3%) were called active. The inconclusive results got no clear call from the source; some entries with a clear call stand among them for comparison. Calls follow the shape of the dose curve; as a rule, active = well fitted inhibition curve with a large enough effect (not every such curve was filed as active); inconclusive = small, poorly fitted or top-dose-only effect, or another doubt; inactive = no such curve, though single readings can be large or run the other way. Where the call is inconclusive, the potency comes from a doubtful curve fit.

target: 15-hydroxyprostaglandin dehydrogenase [NAD(+)] (Homo sapiens) (UniProt P15428); experiment: qHTS Assay for Inhibitors of HPGD (15-Hydroxyprostaglandin Dehydrogenase); details: purified HPGD, NADH fluorescence kinetic, PGE2 substrate; activity change, negative = inhibition: hits give low values
Method in brief: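 20 nM HPGD preincubated 15 min at room temperature with compound in 50 mM Tris-HCl pH 8, 0.01% Tween 20. Started with 1 mM NAD+ and 30 uM prostaglandin E2; NADH fluorescence (360/450 nm) read 5 times over 30-s intervals, last minus first.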
% is scaled to controls: 0 for no effect and ±100 for the full control effect; potency is read from the fitted curve at half-maximal effect; tags tell the direction and shape of the fitted curve.

UniProt P15428, sequence (P15428 whole entry, looked up): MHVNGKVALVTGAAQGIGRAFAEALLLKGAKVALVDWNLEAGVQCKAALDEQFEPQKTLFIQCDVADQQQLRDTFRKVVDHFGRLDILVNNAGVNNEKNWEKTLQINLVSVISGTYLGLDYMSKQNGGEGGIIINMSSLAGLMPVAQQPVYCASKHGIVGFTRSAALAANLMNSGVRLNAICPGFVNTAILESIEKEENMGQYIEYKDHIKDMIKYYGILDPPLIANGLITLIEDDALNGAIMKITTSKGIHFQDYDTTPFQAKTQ

Structure (SMILES)	Potency	activity change, negative = inhibition
COC(=O)c1cccc(COC(=O)c2ccccc2NC(=O)c2ccco2)c1	inconclusive: 39.8 µM [inhibitor, single point]	
COc1cc2ccc(=O)oc2c(O)c1O	inconclusive: 25.1 µM [inhibitor, partial curve] and inconclusive: 15.8 µM [inhibitor, full curve]	
Cc1cccc(-c2nc(CS(=O)CC(=O)N3CCc4ccccc4C3)c(C)o2)c1 (centres undefined)	inconclusive: 44.7 µM [inhibitor, single point]	
COc1ccc(-c2nc(C)sc2CC(=O)O)cc1		inactive: -16.8%
Cc1ccccc1C(=O)NCCSc1ccccc1	active: 20 µM	
O=C(/C=C/c1ccccc1)c1ccc2c(c1)OCCCCO2	inconclusive: 22.4 µM [inhibitor, single point]	
CCCCN(C)C(=O)c1cc2cc3ccc(OC)cc3nc2s1	inconclusive: 15.8 µM [inhibitor, partial curve]	
CC1CC(C)CN(CCCNC(=O)c2ccc3c(c2)NC(=O)C(N2CCCCC2)S3)C1 (centres undefined)		inactive: -12.2%
O=C(CCn1c(=O)[nH]c2ccsc2c1=O)N1CCc2ccccc2C1	inconclusive: 39.8 µM [inhibitor, partial curve]	
O=C(Nc1ccc2c(c1)nc1n2CCSC1)c1ccco1	inconclusive: 20 µM [inhibitor, partial curve]	
O=C(OC(C(=O)NC1CCCCC1)c1ccccc1)c1ccco1 (centres undefined)	inconclusive: 28.2 µM [inhibitor, partial curve]	
COCCn1c(=O)c(-c2ccccc2)nc2cnc(OCc3ccccc3)nc21	inconclusive: 28.2 µM [inhibitor, partial curve]	
O=C1SCC(c2ccc(Cl)cc2Cl)=NN1Cc1nnc(-c2ccccc2)o1	active: 31.6 µM	
O=C(c1cccn2c(=O)c3ccc(Cl)cc3nc12)N1CCN(Cc2ccc3c(c2)OCO3)CC1	inconclusive: 28.2 µM [inhibitor, partial curve]	
O=C1c2ccccc2C(=O)c2c(O)c(O)cc(O)c21	active: 28.2 µM and active: 25.1 µM	
CC(=O)C(C)Oc1ccc2c3c(c(=O)oc2c1)CCCC3 (centres undefined)	inconclusive: 31.6 µM [inhibitor, partial curve]	
CCCn1c(-c2ccc(F)cc2)nc2c(NCC3CCCN3CC)nc(C)nc21 (centres undefined)	inconclusive: 28.2 µM [inhibitor, partial curve]	
O=C(Cn1c(=O)n(CCCCC(=O)NC2CCCC2)c(=O)c2ccccc21)NCCC1=CCCCC1	inconclusive: 15.8 µM [inhibitor, partial curve]	
Oc1cc2ccccc2cc1-c1n[nH]c(=S)o1	inconclusive: 7.94 µM [inhibitor, partial curve]	
Cc1ccc(N=Nc2c(N)n(-c3ccccc3)[nH]c2=O)cc1		inactive: 3.33%
CCOC(=O)c1sc(NC(=O)c2ccc(Cl)s2)cc1C	inconclusive: 28.2 µM [inhibitor, partial curve]	
COc1cc(NC(=S)NCc2cccs2)cc(OC)c1	active: 17.8 µM	
Cn1c(SCC(=O)Nc2cc(=O)n(C)c(=O)n2C)nnc1C12CC3CC(CC(C3)C1)C2		inactive: -10.6%

Structure (SMILES)	Potency	activity change, negative = inhibition
c1cncc(CNc2cccc(-c3nc4ccccc4[nH]3)c2)c1	inconclusive: 28.2 µM [inhibitor, partial curve]	
CCc1c(C)c2ccc(OCC(=O)OC(C)C)c(C)c2oc1=O	inconclusive: 7.94 µM [inhibitor, partial curve]	
CC1(C)Cc2c(c(-c3ccccc3)[nH]c(=O)c2C#N)CO1	inconclusive: 28.2 µM [inhibitor, partial curve]	
NC(=O)c1c(NC(=O)CSc2nnc(-c3ccccc3)n2CC2CCCO2)sc2c1CCC2 (centres undefined)	inconclusive: 22.4 µM [inhibitor, single point]	
COc1cc(OC)cc(-c2cc3nc(C)c(CCC(=O)NC(C)CCc4ccco4)c(C)n3n2)c1 (centres undefined)	inconclusive: 25.1 µM [inhibitor, single point]	
COCc1cc(C)nc(N2CCOCC2)c1C#N	inconclusive: 31.6 µM [inhibitor, partial curve]	
O=C(CNc1ccc2ccccc2c1)N/N=C/c1ccc(OC(=O)/C=C/c2ccco2)cc1		inactive: -10.7%
CCOc1ccc2nc(NC(=O)CN3CCC(n4nnc5cc(F)ccc54)CC3)sc2c1		inactive: -19.5%
Cc1ccccc1OCC(=O)OCC(=O)NCc1cccs1	inconclusive: 10 µM [inhibitor, partial curve]	
NC(=S)N/N=C/c1ccccc1OCCSc1ccc(Cl)cc1	active: 35.5 µM	
CC(=O)c1cccc(NS(=O)(=O)c2ccc(N/C=C/C(=O)c3ccc(F)cc3)cc2)c1	inconclusive: 28.2 µM [inhibitor, partial curve]	
Cc1ccc(S(=O)(=O)c2nc(S(C)(=O)=O)sc2N(C)C)cc1		inactive: -1.44%
O=c1oc2cc(O)ccc2cc1-c1ccc(F)cc1	inconclusive: 17.8 µM [inhibitor, partial curve]	
CCCc1[nH]c(=O)c(C#N)c2c1CCCC2	inconclusive: 31.6 µM [inhibitor, partial curve]	
O=C1NC(=S)SC1=C1CCCC1	active: 35.5 µM	
O=S(=O)(Nc1ccc(-c2nc3cccnc3s2)cc1)c1cccs1	inconclusive: 25.1 µM [inhibitor, partial curve]	
O=c1oc2cc(OCc3ccc(C(F)(F)F)cc3)ccc2cc1-c1ccccn1	inconclusive: 10 µM [inhibitor, partial curve]	
N=C(N)SCc1nc2ccccc2c(=O)n1-c1ccccc1	inconclusive: 28.2 µM [inhibitor, single point]	
Cc1ccc(C)c(-n2c(-c3csc(C)c3)n[nH]c2=S)c1	inconclusive: 20 µM [inhibitor, partial curve]	
CC(=O)Nc1ccc(S(=O)(=O)Nc2cccc(-c3nc4ccccc4o3)c2)cc1	inconclusive: 22.4 µM [inhibitor, partial curve]	
Cc1cccc(NC(=O)c2oc3ccc(S(=O)(=O)N4CCOCC4)cc3c2C)c1C	inconclusive: 35.5 µM [inhibitor, single point]	
CCCNC(=O)c1ccc(Cn2c(=S)[nH]c3c([nH]c4ccc(OC)cc43)c2=O)cc1	inconclusive: 25.1 µM [inhibitor, partial curve]	
COc1cc(-n2c(=O)c3ccccc3n(Cc3cc(=O)n4ccccc4n3)c2=O)cc(OC)c1OC	inconclusive: 28.2 µM [inhibitor, single point]	

Structure (SMILES)	Potency	activity change, negative = inhibition
CN1C(=O)Cn2c1nc1ccccc12		inactive: -17.9%
O=C(CCSCCC(=O)NCc1ccco1)NCc1ccco1	active: 15.8 µM	
COc1ccc(Oc2ncc3nc(C)c(=O)n(CCC#N)c3n2)cc1		inactive: -20.9%
CCCCNS(=O)(=O)c1ccc2nc(SCC(=O)Nc3sccc3C#N)[nH]c2c1	inconclusive: 22.4 µM [inhibitor, partial curve]	
O=C(Nc1cc(-c2nc3ccccc3s2)ccc1Cl)c1ccc2c(c1)OCO2	inconclusive: 14.1 µM [inhibitor, partial curve]	
Cc1ccc(OCCCN2C(=O)C(=O)c3cccc(C)c32)cc1	active: 17.8 µM	
COc1cc(/C=C/C(=O)N2CCCC2)cc(OC)c1OC	inconclusive: 28.2 µM [inhibitor, partial curve]	
CCCCCCc1cc2cc(C(N)=O)c(=N)oc2cc1O	inconclusive: 25.1 µM [inhibitor, partial curve]	
CC1=NN(c2ccc(C)cc2)C(=O)/C1=C\C=C\c1ccccc1		inactive: -15.9%
CCOC(=O)c1c(NC(=O)c2ccccc2Br)sc2c1CCc1ccccc1-2	active: 14.1 µM	
COc1ccccc1CN1CCSCC1		inactive: 5.04%
Cc1nnc(SCc2cccs2)[nH]c1=O		inactive: -10.3%
CCN(CC)c1ccc(/C=N/NC(=O)Cc2cccs2)c(O)c1	inconclusive: 28.2 µM [inhibitor, partial curve]	
CCCc1ccc(OCc2ccc(C(=O)N3CCN(c4ccccn4)CC3)o2)c(OC)c1	inconclusive: 0.141 µM [inhibitor, partial curve, poor fit]	
CCCCc1cc(=O)oc2c(CN(CC)CC)c(O)c(Cl)cc12	inconclusive: 3.16 µM [inhibitor, full curve]	
COC(=O)CCC(=O)c1oc2ccccc2c1NC(=O)CCCN1C(=O)c2ccccc2C1=O		inactive: -11.9%
Cc1nc(NC2CCCCC2)c2nc(-c3ccccc3)n(CCCN3CCOCC3)c2n1	inconclusive: 28.2 µM [inhibitor, partial curve]	
N#Cc1ccc(NC(=O)c2nc(-c3ccccc3)n(-c3ccccc3)n2)cc1	inconclusive: 35.5 µM [inhibitor, partial curve]	
COC(=O)[C@@]1(Cc2ccccc2)[C@H]2c3cc(C(=O)N(C)C)n(C[C@H](O)CO)c3C[C@H]2CN1C(=O)c1ccccc1		inactive: -7.33%
CCCn1c(NC(=O)c2ccc(Cl)c(S(=O)(=O)N3CCCC3)c2)nc2ccccc21	inconclusive: 31.6 µM [inhibitor, single point]	
CC(C)(CNC(=O)c1sc2cc(F)ccc2c1Cl)N1CCOCC1		inactive: -18.7%
Cc1cc(C)n(-c2ncnc3sc(C)c(C)c23)n1	inconclusive: 15.8 µM [inhibitor, partial curve, poor fit]	
CC(C)C(O)(C(C)C)C(C)C		inactive: -8.68%
